The chains are these.
B1: 3573380_3573500_6314_CDS_ENSMUSG00000033799_ENSMUST00000096069|mouse|control|control (ssRNA)
RNA: GGGAGUUCUACAGUCCGACGAUCGUACUCUAGGUCUAAUGUAUGCUGAGUAAGGUCAUCUGUCACAUGCCAGGUACUAGUCCAGGAGCUGAGAAGGUUGCAGUUUGCACUCAAAUUCCGAUGCCUCUUCAGGCUAUGCAACCUCAACAGAGGAUUGAGCAUCA
B2: 104850710_104852920_1218_CDS_ENSG00000076685_ENST00000404739|human|control|control (ssRNA)
RNA: GGGAGUUCUACAGUCCGACGAUCGGAACUGAUGUCUGGACGCUCAUUGCUACUGCUGUCAAGAUGCUUGUAGAGUUCAGCCAAGAAAAUAUCCAAGCUCUGAAGUUCUUCGAAAAGUGAACUCUUGUCAGUCCAGACAUGUAGCAACAGAGGAUUGAGCAUCA
B3: chr7:139256351:139256352:-_ENSG00000064393_ENST00000406875|hu_hu|FALSE|FALSE (ssRNA)
RNA: GGGAGUUCUACAGUCCGACGAUCUCUUUCGAGAUCCACGGACUCUCUCCUAGCUCCUGCUGGCUUCCCUGGCAUCCUUCCGCUAGCAAACAGCCCAGGAAAGACAACGGGCAUUAACAUUUUAAAAAGAAAAAGAAAAAGAAACAACAGAGGAUUGAGCAUCA
B4: chr3:100432656:100432657:+_ENSG00000114354_ENST00000490574|hu_hu|FALSE|FALSE (ssRNA)
RNA: GGGAGUUCUACAGUCCGACGAUCUGUUACUUCAUCAUUACUCAGAAGUUUUCCUCUGAAAACUCGUUGCAUCAUUAGCACUAAUUCAUCAUAAGUAAUAUCUUCAUUAUGAAUAGGAAUUCGCCGAAUAUCCUCCCCAAGUUGCAACAGAGGAUUGAGCAUCA
B5: chr3:45748292:45748293:+_ENSG00000211456_ENST00000389061|hu_hu|FALSE|FALSE (ssRNA)
RNA: GGGAGUUCUACAGUCCGACGAUCUGCUUUCCAGACUACAUGACUGAAAAAUUCACCUACUUUUAUCUUUUUGGUAAUGACUAUAAGAUAAUUACCUGCCACCAGAUGGAUUGUGCCCAGUAUACCAAAUAUUGGUCUUGUGACCAACAGAGGAUUGAGCAUCA
B6: chr2:42509997:42509998:+_ENSG00000143924_ENST00000318522|hu_mus|hu_hu_hu_mus_True|1_88 (ssRNA)
RNA: GGGAGUUCUACAGUCCGACGAUCUCGCUGAGUCCUCUCCUCAUAAUUAAAUAGUACUACCACUGAGGCGAUAAAAUAAACUAUCUCCCCUGUGGGAAGCAGGUAUACAUUCGCUCUACAGUCCUUUCCUCGAUAACCAUAUGCCAACAGAGGAUUGAGCAUCA
B7: chr10:1038518:1038519:+_ENSG00000107937_ENST00000545048|hu_hu|hu_hu_hu_mus_False|1_108 (ssRNA)
RNA: GGGAGUUCUACAGUCCGACGAUCCAGUCUAUCAUGGUAAUUCUGUUGAGUAAAUUUGACUUUUCUCAUAUAAAAAUGUCGAAUCCGAUGAAUUUGAUAAUGUUUAUGAAUAACCGUUGGAGUCUUUCGUUGAGUCUUCGACAACAACAGAGGAUUGAGCAUCA
B8: 52102614_52102734_3300_3pUTR_ENSG00000128872_ENST00000249700|human|control|control (ssRNA)
RNA: GGGAGUUCUACAGUCCGACGAUCUUUCUUACAUAUUGCUAAUUUCUGUGGUGUAAAUAUUUCUACCAUGGCCAAUUUCAAGCCACUGUAGUAACAAGAAGGUAGUGAACAUGGAGUUGAGAGGAUACGUUCAGUAGCAUACUGCAACAGAGGAUUGAGCAUCA
B9: chr3:101264221:101264222:+_ENSMUSG00000042035_ENSMUST00000043983|mus_mus|motif|central (ssRNA)
RNA: GGGAGUUCUACAGUCCGACGAUCAGAUUGGCGAGUAGAUGCGGCACCUGGAGCUACGCACUAAGUUACCAAAACCAAAAACGGGGAACCUAGGAUGUUGGCAUCAUGACACCUGGGUGUGAUCAGCUAACCAGGGCUGCCGCCCAACAGAGGAUUGAGCAUCA
B10: chr7:141441981:141441982:+_ENSG00000106028_ENST00000265304|hu_mus|hu_hu_hu_mus_False|1_28 (ssRNA)
RNA: GGGAGUUCUACAGUCCGACGAUCCUCAUGUCUUACAAACUGACGAAAUACCUGUAACACAGGUCUUCGAAACAUGGCUUCUGUUUUUCUUACAACCUAAUCUUUAGUUAGGCUUUUAAGGAAAGAAAGAAAAGAGAAGCCCAGCAACAGAGGAUUGAGCAUCA
B11: 131209633_131209753_140_3pUTR_ENSMUSG00000025809_ENSMUST00000090006|mouse|control|control (ssRNA)
RNA: GGGAGUUCUACAGUCCGACGAUCUCGGGCCGGCGUCGGCGGGCCUCGGCUUCUCGGUUGGUCUCGGGUGGCGUCGGCGGGCCUCGGCCGCUCCGCGGGUCUGGCGGCUCUUCAGCGAGUGGGCGGAGACUCGGCCCGCCUGUCCAACAGAGGAUUGAGCAUCA
B12: chr1:220315150:220315151:+_ENSG00000067704_ENST00000302637|hu_hu|motif|central (ssRNA)
RNA: GGGAGUUCUACAGUCCGACGAUCAGCCAGGUGAGGAAGAAUGGGAGCAAAAGAACGAACUAUUACAUCCAAAAUUUCAACGGAUGCAGUCUGACAAGAGCGUCGUUUGGGGUCAUUUUCCUUUUCACAAUAGAGCCUAUCUUUCAACAGAGGAUUGAGCAUCA
B13: chr12:84935825:84935826:-_ENSMUSG00000042628_ENSMUST00000048319|mus_hu|FALSE|FALSE (ssRNA)
RNA: GGGAGUUCUACAGUCCGACGAUCUCCCGCUGCAAGCGUAACUUUCCUGGCACAUCAGCCCCGGAUUCAGGCCCUUCUCUGCUGGGGAAGUCUGGGCACUCAUACUCACGCUGGUAAGGAAACACACCCACCAUAUAAUAGUCACAACAGAGGAUUGAGCAUCA
B14: 45071528_45071648_1140_3pUTR_ENSMUSG00000048232_ENSMUST00000052236|mouse|control|control (ssRNA)
RNA: GGGAGUUCUACAGUCCGACGAUCUCCUCCCCGCUGGGGCUCAGGCCACCGUCACUGCUGUCUGGAGUCUGGGCCACUCUCUCCCCAUCGCUGCCCACCUCUGCCUCCUUGGAGCCUGGCUUGGGAGAGCUACAGACUGGGCUUCAACAGAGGAUUGAGCAUCA
B15: chr5:145543945:145543946:-_ENSG00000133706_ENST00000545646|hu_hu|hu_hu_hu_mus_True|58_58 (ssRNA)
RNA: GGGAGUUCUACAGUCCGACGAUCCUGAACGGCCAGUGGUGGGAAAUAAUCAAGCCAGUGCUCUGCUUCAGAAAACUUUACUAUCUCGUCAUCAGAGAGCCCAAGGGAUUUCAUAAUGUCCCACUGGUACUUAGAAGAUCCUGCCAACAGAGGAUUGAGCAUCA
B16: chr16:94664741:94664742:+_ENSMUSG00000040785_ENSMUST00000117648|mus_hu|mus_mus_mus_hu_False|58_108 (ssRNA)
RNA: GGGAGUUCUACAGUCCGACGAUCUGGCAUGGAUCUUGGUAGCUGAUAUUCAGGAGAAAGGCUGGCCAAGGGUGUAUAAAUGCUAGUGUACUGGGGCAAACCUGGUAACACGUUUAUGUAUGCUGGCGGUGUCUGGGUGAUAUCCAACAGAGGAUUGAGCAUCA
B17: chr6:114281168:114281169:-_ENSG00000196591_ENST00000368632|hu_hu|hu_hu_hu_mus_True|38_68 (ssRNA)
RNA: GGGAGUUCUACAGUCCGACGAUCUUCCAUUUUUCGGUAUAAACCAUAAUUUAGCAGCAAGUUAUGAGUCAUGCGGAUUCUAUGAGGCUUCAUGGGAUGACCCUGUCCAUAAUAAUAAUUGCCAAUAUCACCAUCAUAGUAGUACAACAGAGGAUUGAGCAUCA
B18: chr3:9412954:9412955:+_ENSG00000134077_ENST00000452837|hu_mus|hu_hu_hu_mus_False|28_108 (ssRNA)
RNA: GGGAGUUCUACAGUCCGACGAUCGGUUGAUACAUCCUCUUUGAUGGCUGGAUUUUCAUAAUAGUCCAAGAUAUGUGAAUCUGAAGUGCUGCUGGCAUGCUUUUUCUUAACAUUUCUCUCAUCUGCUUUGUCUCCUUGUCCACACAACAGAGGAUUGAGCAUCA
B19: chr3:103732867:103732868:+_ENSMUSG00000044098_ENSMUST00000106806|mus_mus|FALSE|FALSE (ssRNA)
RNA: GGGAGUUCUACAGUCCGACGAUCAAAAUUAAAAGCAAAGUAGUCCAAGAAGUCUGGGAGAUAAGCGGCCGCUCCAUGCACUAUUGCUAACGCAUAGUACGCAGCGUUUUUCUCAUUUUCACUGAAUGUCAAAGCAAGAAACUCCAACAGAGGAUUGAGCAUCA
B20: chr1:244855233:244855234:+_ENSG00000121644_ENST00000302550|hu_mus|hu_hu_hu_mus_True|88_108 (ssRNA)
RNA: GGGAGUUCUACAGUCCGACGAUCCAUUAAAUGAUAAGCGUUGCCCUUGUAUUCUUUCCCCAGUUCUUCUACAAUUUUCUCUAUAUCAUCUUCUAGAAAGUCCGUACUUCCUAGAACAACAGCUUCUUUAAAUUUAAAUGUUUCCAACAGAGGAUUGAGCAUCA
B21: chr8:124405102:124405103:-_ENSMUSG00000040010_ENSMUST00000045557|mus_mus|FALSE|FALSE (ssRNA)
RNA: GGGAGUUCUACAGUCCGACGAUCCCCAAAAAAACAAAAAGCCUCACAAAACAGCAGACCUCUGUACCCCCCCCCCAGUCUAAUGUAACAGGCUAGCCAUUAAUACAAUAGUAAAAGACAUUAUAACCACAGCACUAUCUCAGGCAACAGAGGAUUGAGCAUCA
B22: 129281792_129283504_579_CDS_ENSG00000156709_ENST00000287295|human|control|control (ssRNA)
RNA: GGGAGUUCUACAGUCCGACGAUCUAGCAGGAAAGGAACAUGACUUGGCGCCUUGUCUUGAGGAACUUCCUCUCCUUCUGAAGCAGAUAACGCGGCCUUUUUCUGUUUCUGUUCUGGUGUCAGCCCUAACCCUGAAAUUCUUUCCAACAGAGGAUUGAGCAUCA

Some of the results follow.

The target of the experiment is T1, UNK ZnF1-3 (human, UniProt Q9C0B0 31-174).
T1 sequence: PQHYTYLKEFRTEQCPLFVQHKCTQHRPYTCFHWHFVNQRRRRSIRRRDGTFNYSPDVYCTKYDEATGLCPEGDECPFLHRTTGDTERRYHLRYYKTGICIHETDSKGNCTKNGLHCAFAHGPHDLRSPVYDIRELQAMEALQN
Nature of the experiment: nsRBNS (natural sequence RNA bind-n-seq); RBNS binding buffer (assumed for nsRBNS): 25 mM Tris pH 7.5, 150 mM KCl, 3 mM MgCl2, 0.01% Triton X-100, 500 ug/ml BSA, 20 U/ml SUPERase-In, 4 C; UNK is unkempt and MSI1 is Musashi-1; names of the RNAs are library labels; protein concentration not given here; high values mean tight binding.
B1 had a binding signal of 0.764 enrichment R.

On to B2, for which the binding signal is 0.921 enrichment R.

Molecule B3 displayed a binding signal of 1.86 enrichment R.

Take B4: the binding signal turned out to be 0.418 enrichment R.

B5: the binding signal came out at 2.32 enrichment R.

The molecule B6 showed a binding signal of 1.48 enrichment R.

Turning to B7, the binding signal came to 0.553 enrichment R.

As to B8, the binding signal came out at 0.66 enrichment R.

As for B9, the binding signal worked out at 1.52 enrichment R.

In turn, B10 came in with a binding signal of 0.455 enrichment R.

For B11, the binding signal came to 0.347 enrichment R.

B12 had a binding signal of 2.51 enrichment R.

Take B13: the binding signal was determined as 1.34 enrichment R.

Consider B14, for which the binding signal was 0.962 enrichment R.

B15 came in with a binding signal of 1.22 enrichment R.

Take B16: the binding signal turned out to be 1.04 enrichment R.

Consider B17, for which the binding signal stood at 1.1 enrichment R.

For B18, the binding signal was found to be 0.653 enrichment R.

Molecule B19 yielded a binding signal of 0.759 enrichment R.

Molecule B20 showed a binding signal of 1.14 enrichment R.

In turn, B21 yielded a binding signal of 2.43 enrichment R.

In turn, B22 displayed a binding signal of 0.621 enrichment R.
